Like-named read-outs stand apart in the source and are kept apart here.
B1: DOMAIN_23217 (protein, listed as Vombatus ursinus)
chain: FQESVTFQDVAVDFTWEEWGHLGPAQKELYREVMLENYRNLVCLGLEVSKPDVVCQLERGEAPWMPEGAVPRSCSQNWGAR
B2: DOMAIN_23215 (protein, listed as Vombatus ursinus)
chain: TQESVMFEDVAVDFTREEWSHLDPAQRALYREVMLENYENLVSLGLPVSKLDVISLLERGEAPWRPEGGGPRCSCPDPFIE
B3: DOMAIN_23196 (protein, listed as Odobenus rosmarus)
chain: SKVPVTFGDLAIYFSQEEWEWLSPIQKDLYEDVMLENYQNLVSLGLSFRRPNVITLLEKGKAPWIVEPVRKRRGVDSGSKS
B4: DOMAIN_668 (protein, listed as Pan paniscus)
chain: DPAQVPVAADLLTDHEEQGYVTFEDVAVYFSQEEWRLLDDAQRLLYRNVMLENFTLLASLGLASSKTHEITQLESWEEPFM
B5: DOMAIN_23260 (protein, listed as Tupaia chinensis)
chain: QPGAVRFADVAVYFSPEEWGCLRPVQRALYRDVMRETYSHLVALGVGGTKPKLISWVEEEAELWGPEAQDLEGAKCLTEAN
B6: DOMAIN_23301 (protein)
chain: SQDLVTFKDVAIDFSQEEWEWLNPAQRNLYKNMMLENYQNLVSLGLCISKPYVISLLEQGKGPWEMKTEMTRSPFPDSGSV
modifications: Gulo gulo
B7: DOMAIN_23453 (protein, listed as Carlito syrichta)
chain: MAFMDVAVDFTQEEWRLLSPAQRTLYREVMLENYSNLVSLGIPFSKPKLITLLEQEKVTWREKRKCPLATCPAEPEPEPEL
B8: DOMAIN_23375 (protein)
chain: YQRPVSFKDVVVGFTQEEWHRLNPAQRALYRDVMLETYSNLVSVGYEGTKPYVILRLEQEEAPWICEAACPGCHCRENIWQ
modifications: Vicugna pacos
B9: DOMAIN_23200 (protein, listed as Ursus americanus)
chain: QAEVTFEDVAVLFSREEWGRLGPAQRGLYRDVMLETYRNLVSLGAGPAAPKPGVITQLERGDEPWVLDAQGAKGKERLRVS
B10: DOMAIN_23378 (protein, listed as Odobenus rosmarus)
chain: PQEPVTFEDVAVYFTQNQWASLDPTQRALYREVMLENYASVASLVAFPFPKPDLVSQLERGEAPWSPDPWEAEVLKGTCPG
B11: DOMAIN_23336 (protein, listed as Carlito syrichta)
chain: FQELVTFRDVAIDFSRQEWEYLDPNQRDLYRDVMLENYSNLVSLGHSISKPDVVDLLEQGKEPWMLLGEETQYSGSNPEPV
B12: DOMAIN_23323 (protein, listed as Erinaceus europaeus)
chain: SLGMVSFEDVAVTFSREEWQQLDEAQRTLYREVMLEAYSNLKTVGCCWSKPEVIIRLEQGVEPWTVEGVTNQRFSDVLTVD
B13: DOMAIN_23181 (protein, listed as Colobus angolensis)
chain: SLTLEDVAVDFTWEEWQLLGPAQKDLYRDVMLENYSNLVAVGYQASKPDALSKLEQGEEPCTTEDEIYTRICCGGQPQTCS
B14: DOMAIN_23250 (protein)
chain: MDSVTIEDVAVDFTLEEWALLGPSQRKLYRDVMQETLRNLAAVGAKREYHDIEDQYKNQGRKLRTFMVERLCKSKDISLCG
modifications: Delphinapterus leucas
B15: DOMAIN_23239 (protein)
chain: RPESVTFEDVAIYFSENEWTGLAPAQRALYRDVMLENYGALASLAFPFPKPALIFQLEQGEAPWSSAPQGALDGEGPRGIS
modifications: Vicugna pacos

Tested on: HBEGF locus
Type: cell-based, human
Settings: high-throughput screen of dXR repression of the HBEGF gene
[1] = abundance of each domain in the library before vs after diphtheria toxin selection, listed domains met p-value <0.01 and log2(fold change) >2

| Molecule | Log2 (fold change) [1] | Log2 (fold change) (change in abundance of each domain in the library before and after diphtheria toxin selection) |
| --- | --- | --- |
| B1 | 4.1674 | – |
| B2 | 3.0212 | – |
| B3 | 4.3363 | – |
| B4 | – | 2.9256 |
| B5 | 2.7567 | – |
| B6 | 2.6839 | – |
| B7 | 2.2331 | – |
| B8 | 3.266 | – |
| B9 | 3.755 | – |
| B10 | 3.0623 | – |
| B11 | 2.239 | – |
| B12 | 3.2619 | – |
| B13 | 2.7665 | – |
| B14 | 2.71 | – |
| B15 | 3.0945 | – |

Source: US12551573B2, “Compositions and methods for the targeting of PCSK9” (Scribe Therapeutics Inc., priority 2022, dated 2026)
